According to PMC12529666:
This is a selection; strong and weak results do not stand in their true shares. At the low end of the ranking the order means little.

target: AGO2 A367P A367P + S387D + S824A + S828D + S831D + S834A (UniProt Q9UKV8); assay: RNA Bind-n-Seq (nitrocellulose filter binding and sequencing); details: constant regions annealed to DNA blockers; guide miR-122 5' phosphate; 30 mM Tris pH 8.0, 100 mM potassium acetate, 2 mM magnesium acetate, 0.5 mM TCEP, 0.005% NP-40, 0.01 mg/ml yeast tRNA; 3 nM AGO2-miR-122, 100 nM RNA library …; high values mean tight binding

Sequence | binding signal (fold enrichment over input)
GAGUUCUACAGUCCGACGAUCCCAACAUAUCCUGCACCUGGAAUUCUCGGGUGCCAA / UGGAGUGUGACAAUGGUGUUUG / GATCGTCGGACTGTAGAACTC / TTGGCACCCGAGAATTCCA | 0.12
GAGUUCUACAGUCCGACGAUCCCAACAUGUCUCGCACCUGGAAUUCUCGGGUGCCAA / UGGAGUGUGACAAUGGUGUUUG / GATCGTCGGACTGTAGAACTC / TTGGCACCCGAGAATTCCA | 0.12
GAGUUCUACAGUCCGACGAUCCCAACAUGCCCCGCACCUGGAAUUCUCGGGUGCCAA / UGGAGUGUGACAAUGGUGUUUG / GATCGTCGGACTGTAGAACTC / TTGGCACCCGAGAATTCCA | 0.134
GAGUUCUACAGUCCGACGAUCCCAACAUAUCCCGCACCUGGAAUUCUCGGGUGCCAA / UGGAGUGUGACAAUGGUGUUUG / GATCGTCGGACTGTAGAACTC / TTGGCACCCGAGAATTCCA | 0.11

target: AGO2 F182del S387D + S824A + S828D + S831D + S834A + del182-182 (UniProt Q9UKV8); assay: as above; details: constant regions annealed to DNA blockers; guide miR-122 5' phosphate; 30 mM Tris pH 8.0, 100 mM potassium acetate, 2 mM magnesium acetate, 0.5 mM TCEP, 0.005% NP-40, 0.01 mg/ml yeast tRNA; 3 nM AGO2-miR-122, 100 nM RNA library …; high values mean tight binding

Sequence | binding signal (fold enrichment over input)
GAGUUCUACAGUCCGACGAUCCCAACAUAUCCUGCACCUGGAAUUCUCGGGUGCCAA / UGGAGUGUGACAAUGGUGUUUG / GATCGTCGGACTGTAGAACTC / TTGGCACCCGAGAATTCCA | 0.0514
GAGUUCUACAGUCCGACGAUCCCAACACAUUCCACACCUGGAAUUCUCGGGUGCCAA / UGGAGUGUGACAAUGGUGUUUG / GATCGTCGGACTGTAGAACTC / TTGGCACCCGAGAATTCCA | 2.93
GAGUUCUACAGUCCGACGAUCCCAACAUGUCUCGCACCUGGAAUUCUCGGGUGCCAA / UGGAGUGUGACAAUGGUGUUUG / GATCGTCGGACTGTAGAACTC / TTGGCACCCGAGAATTCCA | 0.0523
GAGUUCUACAGUCCGACGAUCCCAACAUGCCCCGCACCUGGAAUUCUCGGGUGCCAA / UGGAGUGUGACAAUGGUGUUUG / GATCGTCGGACTGTAGAACTC / TTGGCACCCGAGAATTCCA | 0.0428
GAGUUCUACAGUCCGACGAUCCCAACACGCUCCGCACCUGGAAUUCUCGGGUGCCAA / UGGAGUGUGACAAUGGUGUUUG / GATCGTCGGACTGTAGAACTC / TTGGCACCCGAGAATTCCA | 15.2
GAGUUCUACAGUCCGACGAUCCCAACGUACUUCGCACCUGGAAUUCUCGGGUGCCAA / UGGAGUGUGACAAUGGUGUUUG / GATCGTCGGACTGTAGAACTC / TTGGCACCCGAGAATTCCA | 0.049
GAGUUCUACAGUCCGACGAUCCCAACACACCUUACACCUGGAAUUCUCGGGUGCCAA / UGGAGUGUGACAAUGGUGUUUG / GATCGTCGGACTGTAGAACTC / TTGGCACCCGAGAATTCCA | 1.89
GAGUUCUACAGUCCGACGAUCCCAACAUGCCUCGCACCUGGAAUUCUCGGGUGCCAA / UGGAGUGUGACAAUGGUGUUUG / GATCGTCGGACTGTAGAACTC / TTGGCACCCGAGAATTCCA | 0.0547
GAGUUCUACAGUCCGACGAUCCCAACGCGCCUUGCACCUGGAAUUCUCGGGUGCCAA / UGGAGUGUGACAAUGGUGUUUG / GATCGTCGGACTGTAGAACTC / TTGGCACCCGAGAATTCCA | 0.0436
GAGUUCUACAGUCCGACGAUCCCAACGCGUCCCGCACCUGGAAUUCUCGGGUGCCAA / UGGAGUGUGACAAUGGUGUUUG / GATCGTCGGACTGTAGAACTC / TTGGCACCCGAGAATTCCA | 0.0444
GAGUUCUACAGUCCGACGAUCCCAACGCGCCCUACACCUGGAAUUCUCGGGUGCCAA / UGGAGUGUGACAAUGGUGUUUG / GATCGTCGGACTGTAGAACTC / TTGGCACCCGAGAATTCCA | 0.0598
GAGUUCUACAGUCCGACGAUCCCAACACAUCCUGCACCUGGAAUUCUCGGGUGCCAA / UGGAGUGUGACAAUGGUGUUUG / GATCGTCGGACTGTAGAACTC / TTGGCACCCGAGAATTCCA | 0.153
GAGUUCUACAGUCCGACGAUCCCAACGCACCCCGCACCUGGAAUUCUCGGGUGCCAA / UGGAGUGUGACAAUGGUGUUUG / GATCGTCGGACTGTAGAACTC / TTGGCACCCGAGAATTCCA | 0.203
GAGUUCUACAGUCCGACGAUCCCAACGUGCUUCACACCUGGAAUUCUCGGGUGCCAA / UGGAGUGUGACAAUGGUGUUUG / GATCGTCGGACTGTAGAACTC / TTGGCACCCGAGAATTCCA | 0.235
GAGUUCUACAGUCCGACGAUCCCAACGCGUCUUACACCUGGAAUUCUCGGGUGCCAA / UGGAGUGUGACAAUGGUGUUUG / GATCGTCGGACTGTAGAACTC / TTGGCACCCGAGAATTCCA | 0.109
